{"source": "the supplement of paper PMC10037445", "key": {"RAW-Dual [1]": {"system": "RAW-Dual", "experiment": "IRF Lucia reporter activity, fold change vs agonist alone; cytotoxicity flag (confluency mask): not cytotoxic; higher = enhanced IRF activity", "procedure,_shortened": "(§1)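 RAW-Dual macrophages (50,000 cells/well in DMEM, 384-well plates) received 50 nL of library stock by pin tool, then a PRR agonist 1 h later, and were kept at 37 °C, 5% CO2. After 20 hours, supernatant was read for IRF by QuantiLuc luminescence and for NF-κB by QuantiBlue absorbance at 620 nm. Reporter activity is fold change over agonist-alone wells. Cytotoxic wells had IncuCyte confluency below 70% of agonist controls in both mask sets.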"}, "RAW-Dual [2]": {"system": "RAW-Dual", "experiment": "IRF Lucia reporter activity, fold change vs agonist alone; higher = enhanced IRF activity", "conditions": "library stock concentration (final ~1000-fold dilution): 10 mM, agonist: MPLA (TLR4) […]", "procedure,_shortened": "as §1"}, "RAW-Dual [3]": {"system": "RAW-Dual", "experiment": "IRF Lucia reporter activity, fold change vs agonist alone; cytotoxicity flag (confluency mask): cytotoxic (confluency <70% of control); higher = enhanced IRF activity", "procedure,_shortened": "as §1"}, "[4]": {"conditions": "agonist: 3'3'-cGAMP (STING) 10 ug/mL"}, "[5]": {"conditions": "cytotoxicity flag (confluency mask): not cytotoxic"}}, "note": "Where “and” joins values, the source holds several entries; their conditions need not be identical. Equal values may be shown once. ± gives the standard deviation of the averaged measurements. Whole data set: some 2,900 compounds, median “IRF Lucia reporter activity, fold change vs agonist alone” near 0.9, cut for the highest 2% near 2.8. Some of the results follow."}
{"smiles": "O=c1c(-n2ccnn2)c[nH]n1-c1cc(N2CCOCC2)ncn1", "note": "(library stock concentration (final ~1000-fold dilution): 2 mM)", "values": [{"measurement": "IRF Lucia reporter activity", "setting": "RAW-Dual [1]; [4]", "result": 0.977}, {"measurement": "IRF Lucia reporter activity", "setting": "RAW-Dual [1]; agonist: LPS (TLR4) 0.1 ug/mL", "result": 0.873}]}
{"smiles": "COc1cc(/C=C/CO)cc(OC)c1OC1OC(CO)C(O)C(O)C1O", "note": "(stereo not given)", "values": [{"measurement": "IRF Lucia reporter activity", "setting": "RAW-Dual [2]; [5]", "result": 1.05}]}
{"smiles": "COc1cc(/C=C/CO)cc(OC)c1OC1OC(CO)C(O)C(O)C1O", "note": "(stereo not given) (library stock concentration (final ~1000-fold dilution): 10 mM)", "values": [{"measurement": "IRF Lucia reporter activity", "setting": "RAW-Dual [1]; [4]", "result": 1.08}, {"measurement": "IRF Lucia reporter activity", "setting": "RAW-Dual [1]; agonist: LPS (TLR4) 0.1 ug/mL", "result": 0.899}]}
{"smiles": "Cc1cnc(-c2cc(N3CCN(C(=O)CCS(C)(=O)=O)CC3)ncc2Cl)c(C)c1", "note": "(library stock concentration (final ~1000-fold dilution): 10 mM)", "values": [{"measurement": "IRF Lucia reporter activity", "setting": "RAW-Dual [1]; [4]", "result": 1.08}, {"measurement": "IRF Lucia reporter activity", "setting": "RAW-Dual [1]; agonist: LPS (TLR4) 0.1 ug/mL", "result": 1.07}]}
{"smiles": "Cc1cnc(-c2cc(N3CCN(C(=O)CCS(C)(=O)=O)CC3)ncc2Cl)c(C)c1", "values": [{"measurement": "IRF Lucia reporter activity", "setting": "RAW-Dual [2]; [5]", "result": 1.07}]}
{"smiles": "CNC(=O)c1cc(Oc2ccc3nc(NC4CCCCC4O)sc3c2)ccn1", "note": "(stereo not given) (library stock concentration (final ~1000-fold dilution): 10 mM)", "values": [{"measurement": "IRF Lucia reporter activity", "setting": "RAW-Dual [1]; [4]", "result": 1}, {"measurement": "IRF Lucia reporter activity", "setting": "RAW-Dual [1]; agonist: LPS (TLR4) 0.1 ug/mL", "result": 0.776}]}
{"smiles": "N#CCNC(=O)c1ccc(-c2ccnc(Nc3ccc(N4CCOCC4)cc3)n2)cc1", "values": [{"measurement": "IRF Lucia reporter activity", "setting": "RAW-Dual [2]; [5]", "result": 0.966}]}
{"smiles": "N#CCNC(=O)c1ccc(-c2ccnc(Nc3ccc(N4CCOCC4)cc3)n2)cc1", "note": "(library stock concentration (final ~1000-fold dilution): 10 mM)", "values": [{"measurement": "IRF Lucia reporter activity", "setting": "RAW-Dual [1]; [4]", "result": 0.97}, {"measurement": "IRF Lucia reporter activity", "setting": "RAW-Dual [1]; agonist: LPS (TLR4) 0.1 ug/mL", "result": 0.0185}]}
{"smiles": "Cc1ccc(C(=O)Nc2ccc(Oc3cc4cnn(C)c4cc3-c3cn[nH]c3)c(F)c2)c(=O)n1-c1ccc(F)cc1", "values": [{"measurement": "IRF Lucia reporter activity", "setting": "RAW-Dual [2]; [5]", "result": 0.178}]}
{"smiles": "Cc1ccc(C(=O)Nc2ccc(Oc3cc4cnn(C)c4cc3-c3cn[nH]c3)c(F)c2)c(=O)n1-c1ccc(F)cc1", "note": "(library stock concentration (final ~1000-fold dilution): 10 mM)", "values": [{"measurement": "IRF Lucia reporter activity", "setting": "RAW-Dual [1]; [4]", "result": 0.0679}, {"measurement": "IRF Lucia reporter activity", "setting": "RAW-Dual [1]; agonist: LPS (TLR4) 0.1 ug/mL", "result": 0.219}]}
{"smiles": "OCc1c[nH]c2ccccc12", "note": "(library stock concentration (final ~1000-fold dilution): 10 mM)", "values": [{"measurement": "IRF Lucia reporter activity", "setting": "RAW-Dual [1]; [4]", "result": "0.803 and 0.565"}, {"measurement": "IRF Lucia reporter activity", "setting": "RAW-Dual [1]; agonist: LPS (TLR4) 0.1 ug/mL", "result": "0.839 and 0.758"}]}
{"smiles": "OCc1c[nH]c2ccccc12", "values": [{"measurement": "IRF Lucia reporter activity", "setting": "RAW-Dual [2]; [5]", "result": "1.07 ± 0.022"}]}
{"smiles": "CCC1C(=O)N(C)c2cnc(Nc3ccc(C(=O)NC4CCN(C)CC4)cc3OC)nc2N1C1CCCC1", "note": "(stereo not given) (library stock concentration (final ~1000-fold dilution): 10 mM)", "values": [{"measurement": "IRF Lucia reporter activity", "setting": "RAW-Dual [3]; [4]", "result": 0.0273}, {"measurement": "IRF Lucia reporter activity", "setting": "RAW-Dual [3]; agonist: LPS (TLR4) 0.1 ug/mL", "result": 0.0258}]}
{"smiles": "CCC1C(=O)N(C)c2cnc(Nc3ccc(C(=O)NC4CCN(C)CC4)cc3OC)nc2N1C1CCCC1", "note": "(stereo not given)", "values": [{"measurement": "IRF Lucia reporter activity", "setting": "RAW-Dual [2]; cytotoxicity flag (confluency mask): cytotoxic (confluency <70% of control)", "result": 0.0268}]}
{"smiles": "O=C(/C=C/c1ccc(O)cc1)c1ccc(O)cc1O", "values": [{"measurement": "IRF Lucia reporter activity", "setting": "RAW-Dual [2]; [5]", "result": 0.655}]}
{"smiles": "O=C(/C=C/c1ccc(O)cc1)c1ccc(O)cc1O", "note": "(library stock concentration (final ~1000-fold dilution): 10 mM)", "values": [{"measurement": "IRF Lucia reporter activity", "setting": "RAW-Dual [1]; [4]", "result": 0.399}, {"measurement": "IRF Lucia reporter activity", "setting": "RAW-Dual [1]; agonist: LPS (TLR4) 0.1 ug/mL", "result": 0.422}]}
{"smiles": "Cc1ncc(-c2ccnc(Nc3ccc(S(C)(=O)=O)cc3)n2)n1C(C)C", "values": [{"measurement": "IRF Lucia reporter activity", "setting": "RAW-Dual [2]; [5]", "result": 1.06}]}
{"smiles": "Cc1ncc(-c2ccnc(Nc3ccc(S(C)(=O)=O)cc3)n2)n1C(C)C", "note": "(library stock concentration (final ~1000-fold dilution): 10 mM)", "values": [{"measurement": "IRF Lucia reporter activity", "setting": "RAW-Dual [1]; [4]", "result": 1}, {"measurement": "IRF Lucia reporter activity", "setting": "RAW-Dual [1]; agonist: LPS (TLR4) 0.1 ug/mL", "result": 0.0135}]}
{"smiles": "CN1CCC(=C2c3ccccc3C=Cc3ccccc32)CC1.Cl", "values": [{"measurement": "IRF Lucia reporter activity", "setting": "RAW-Dual [2]; [5]", "result": 1.01}]}
{"smiles": "CN1CCC(=C2c3ccccc3C=Cc3ccccc32)CC1.Cl", "note": "(library stock concentration (final ~1000-fold dilution): 10 mM)", "values": [{"measurement": "IRF Lucia reporter activity", "setting": "RAW-Dual [1]; [4]", "result": 0.427}, {"measurement": "IRF Lucia reporter activity", "setting": "RAW-Dual [1]; agonist: LPS (TLR4) 0.1 ug/mL", "result": 1.05}]}
{"smiles": "CCCCCCCCCC(=O)OC1(c2ccc(Cl)cc2)CCN(CCCC(=O)c2ccc(F)cc2)CC1", "note": "(library stock concentration (final ~1000-fold dilution): 10 mM)", "values": [{"measurement": "IRF Lucia reporter activity", "setting": "RAW-Dual [1]; [4]", "result": 0.979}, {"measurement": "IRF Lucia reporter activity", "setting": "RAW-Dual [1]; agonist: LPS (TLR4) 0.1 ug/mL", "result": 1.14}]}
{"smiles": "CCc1ccc(-c2nc(CSCC(=O)NCCc3ccccc3)c(C)o2)cc1", "note": "(library stock concentration (final ~1000-fold dilution): 10 mM)", "values": [{"measurement": "IRF Lucia reporter activity", "setting": "RAW-Dual [1]; [4]", "result": 1.11}, {"measurement": "IRF Lucia reporter activity", "setting": "RAW-Dual [1]; agonist: LPS (TLR4) 0.1 ug/mL", "result": 0.947}]}
{"smiles": "CC(O)Cn1cnc2c1c(=O)n(C)c(=O)n2C", "note": "(stereo not given)", "values": [{"measurement": "IRF Lucia reporter activity", "setting": "RAW-Dual [2]; [5]", "result": 1.05}]}
{"smiles": "CC(O)Cn1cnc2c1c(=O)n(C)c(=O)n2C", "note": "(stereo not given) (library stock concentration (final ~1000-fold dilution): 10 mM)", "values": [{"measurement": "IRF Lucia reporter activity", "setting": "RAW-Dual [1]; [4]", "result": 0.968}, {"measurement": "IRF Lucia reporter activity", "setting": "RAW-Dual [1]; agonist: LPS (TLR4) 0.1 ug/mL", "result": 1.32}]}
{"smiles": "COCCNCCc1cccc(Nc2ncc3c(n2)-c2ccccc2C(c2ccccc2F)C3)c1", "note": "(stereo not given) (library stock concentration (final ~1000-fold dilution): 10 mM)", "values": [{"measurement": "IRF Lucia reporter activity", "setting": "RAW-Dual [3]; [4]", "result": 0.0166}, {"measurement": "IRF Lucia reporter activity", "setting": "RAW-Dual [3]; agonist: LPS (TLR4) 0.1 ug/mL", "result": 0.159}]}
{"smiles": "Cc1ccc2nc(CN(CCN(Cc3nc4ccc(C)cc4[nH]3)Cc3nc4ccc(C)cc4[nH]3)Cc3nc4ccc(C)cc4[nH]3)[nH]c2c1", "note": "(library stock concentration (final ~1000-fold dilution): 10 mM)", "values": [{"measurement": "IRF Lucia reporter activity", "setting": "RAW-Dual [3]; [4]", "result": 0.0117}, {"measurement": "IRF Lucia reporter activity", "setting": "RAW-Dual [3]; agonist: LPS (TLR4) 0.1 ug/mL", "result": 0.0238}]}
{"smiles": "CN(C(Cc1ccc(OS(=O)(=O)c2cccc3cnccc23)cc1)C(=O)N1CCN(c2ccccc2)CC1)S(=O)(=O)c1cccc2cnccc12", "note": "(stereo not given) (library stock concentration (final ~1000-fold dilution): 10 mM)", "values": [{"measurement": "IRF Lucia reporter activity", "setting": "RAW-Dual [1]; [4]", "result": 0.451}, {"measurement": "IRF Lucia reporter activity", "setting": "RAW-Dual [1]; agonist: LPS (TLR4) 0.1 ug/mL", "result": 0.792}]}
{"smiles": "CN(C(Cc1ccc(OS(=O)(=O)c2cccc3cnccc23)cc1)C(=O)N1CCN(c2ccccc2)CC1)S(=O)(=O)c1cccc2cnccc12", "note": "(stereo not given)", "values": [{"measurement": "IRF Lucia reporter activity", "setting": "RAW-Dual [2]; [5]", "result": 0.686}]}
